± gives the standard deviation of the averaged measurements. Over roughly 33,000 sequences, “E-score (dimensionless, -0.5 to 0.5)” has its median near -0.049; the highest 2% begin near 0.37. Some of the results follow.
Test system: T1, PmTbr T-box DNA-binding domain (GST fusion)
T1 sequence: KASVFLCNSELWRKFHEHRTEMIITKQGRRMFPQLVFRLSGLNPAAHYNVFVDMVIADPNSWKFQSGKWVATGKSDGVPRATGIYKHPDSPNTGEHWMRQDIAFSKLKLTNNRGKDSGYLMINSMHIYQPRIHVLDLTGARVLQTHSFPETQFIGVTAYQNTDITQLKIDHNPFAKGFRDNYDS
Test: PBM E-score of 8-mer (E-score (dimensionless, -0.5 to 0.5)); Tbr is Tbrain of the sea star Patiria miniata (Pm) or the sea urchin Strongylocentrotus purpuratus (Sp); higher = stronger binding preference; most listed sequences are background and not binding sites
Conditions: the construct has about 5 more residues each side
Outline: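 Expression of GST-fused Tbr T-box DNA-binding domains, each holding the full T-box plus roughly five flanking residues, was carried out in BL21 E. coli at 20 °C, with purification by glutathione affinity chromatography. Universal Agilent arrays made double-stranded by primer extension were incubated with the protein at 200 nM in PBS (pH 7.5), then scanned and quantified. All ungapped 8-mers were scored from probe intensities, and each received an enrichment E-score from the Universal PBM Analysis Suite, averaged over duplicate arrays.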

Row | Sequence | PBM E-score of 8-mer
1 | AAGCCAAC | -0.215 ± 0.02
2 | ATCAACAT | -0.163 ± 0.076
3 | AGGTAAGA | -0.252 ± 0.06
4 | CTAGCGAG | 0.162 ± 0.12
5 | TGCCTCCA | -0.314 ± 0.032
6 | CAGCGTGC | -0.0551 ± 0.019
7 | ATTTTCAC | 0.217 ± 0.07
8 | CCAGTCCC | -0.0516 ± 0.072
9 | TTCGTCAA | 0.166 ± 0.072
10 | CCCCATGC | -0.155 ± 0.1
11 | AAGAACGT | 0.0982 ± 0.085
12 | CTACTATC | -0.0875 ± 0.067
13 | ATCAGTAC | -0.0998 ± 0.043
14 | ACGGGCAA | -0.133 ± 0.057
15 | CAGACCCG | 0.201 ± 0.0028
16 | CAATTCAG | -0.0904 ± 0.014
17 | GTCTAAAC | -0.1 ± 0.016
18 | CGATCGAC | 0.182 ± 0.012
19 | ATTCAATA | -0.13 ± 0.031
20 | TAGCATGA | -0.143 ± 0.0037
21 | TTCATCAA | -0.132 ± 0.029
22 | TATTCTAA | -0.168 ± 0.075
23 | AGGATAAG | -0.133 ± 0.011
24 | CGAATATC | 0.00707 ± 0.03
25 | CACCTGAG | 0.37535 ± 0.00034

Row | Sequence | PBM E-score of 8-mer
26 | GCGGCTAA | 0.116 ± 0.025
27 | GACCAGGA | -0.164 ± 0.074
28 | TGGGTGAA | -0.158 ± 0.043
29 | ACAGGAAT | -0.0353 ± 0.015
30 | CTGCACAG | 0.0206 ± 0.07
31 | AGTTTTGC | 0.0662 ± 0.03
32 | CGGACTAA | -0.0827 ± 0.038
33 | GGGAAGAC | 0.0167 ± 0.044
34 | TAGCTAAA | -0.135 ± 0.11
35 | AGGGATGG | -0.184 ± 0.019
36 | CACACCAG | 0.399 ± 0.018
37 | ACGACGCA | -0.185 ± 0.04
38 | AATCCCCA | 0.0304 ± 0.051
39 | CTTCGGGC | -0.141 ± 0.071
40 | GGTACTAC | -0.199 ± 0.025
41 | GCGAAGCA | 0.129 ± 0.032
42 | AGTAGCCC | -0.224 ± 0.068
43 | CGCAGTTC | 0.0883 ± 0.018
44 | CCACTAAG | -0.13 ± 0.037
45 | AGTGGCAT | 0.0805 ± 0.0044
46 | TATTGGGA | -0.222 ± 0.0037
47 | GGAGGACC | -0.319 ± 0.021
48 | AGATTTTA | -0.0741 ± 0.014
49 | AGGACTGC | -0.264 ± 0.005
50 | AGACTCAG | -0.176 ± 0.1

Row | Sequence | PBM E-score of 8-mer
51 | CACCGATG | 0.0976 ± 0.028
52 | CCCGATTA | 0.0524 ± 0.024
53 | GAATTCAC | 0.157 ± 0.065
54 | GTATCCAA | -0.122 ± 0.013
55 | AAATTAGA | -0.215 ± 0.017
56 | CTCGTTGA | 0.117 ± 0.0086
57 | TCCAATCA | -0.0699 ± 0.008
58 | CACCGGAA | 0.0148 ± 0.014
59 | CCATGTGA | 0.249 ± 0.017
60 | ATTGACAG | 0.15 ± 0.052
61 | GAAAGTCC | -0.0976 ± 0.013
62 | ACCTTTGA | 0.0474 ± 0.073
63 | GCAATCGA | -0.0452 ± 0.025
64 | ATTACGCG | 0.178 ± 0.037
65 | ACGTCATG | -0.0872 ± 0.015
66 | ACCAGCGA | 0.118 ± 0.023
67 | CGGGTAAC | 0.181 ± 0.013
68 | ATCCTCAA | -0.175 ± 0.0031
69 | CAGCCGCA | 0.0329 ± 0.043
70 | ACAAGGGT | -0.0432 ± 0.035
71 | GGAACTCA | -0.217 ± 0.0056
72 | TCATGGAA | -0.178 ± 0.021
73 | AGTAGCAC | 0.357 ± 0.021
74 | ACATGGGT | -0.0955 ± 0.028
75 | AAGGATAG | -0.112 ± 0.017

Row | Sequence | PBM E-score of 8-mer
76 | CTGACCGC | -0.263 ± 0.036
77 | TCATAGGA | -0.288 ± 0.013
78 | TAAAGAAA | -0.0357 ± 0.024
79 | AGCTACGC | -0.0634 ± 0.009
80 | ACGAACGC | -0.0318 ± 0.025
81 | ACGTTAGG | -0.118 ± 0.032
82 | GGTAGTCA | -0.225 ± 0.0084
83 | ATCACCAG | -0.0506 ± 0.043
84 | ACTGAAAA | -0.0773 ± 0.076
85 | CGCGGATA | 0.039 ± 0.062
86 | ACGCCTCG | 0.356 ± 0.018
87 | CTTAGCTA | -0.126 ± 0.029
88 | CTTCTCTC | 0.078 ± 0.034
89 | GCGTTGTA | 0.102 ± 0.0047
90 | CCATGAAA | -0.275 ± 0.06
91 | CTAGCCAC | 0.00299 ± 0.033
92 | ACGGATCT | -0.118 ± 0.0064
93 | GTATTCGA | 0.0428 ± 0.0073
94 | GTGGGCGA | -0.05 ± 0.04
95 | CCGGAGAC | 0.0396 ± 0.052
96 | ACAGACCA | -0.221 ± 0.056
97 | CAGAGGAC | -0.222 ± 0.068
98 | ACTAGTAT | -0.0181 ± 0.0013
99 | ATAGAACC | -0.0785 ± 0.034
100 | AGAAAACG | -0.188 ± 0.06

Row | Sequence | PBM E-score of 8-mer
101 | GGACTCCA | -0.2 ± 0.0023
102 | CCCCATGA | -0.319 ± 0.038
103 | CCATCAAG | -0.211 ± 0.03
104 | ACCATCCA | -0.227 ± 0.05
105 | CACGTATA | 0.144 ± 0.025
106 | CCTGGGCA | -0.0775 ± 0.023
107 | ATTAAGCG | -0.0857 ± 0.02
108 | CGTCCGGA | -0.352 ± 0.038
109 | ACGTCTAT | -0.0516 ± 0.026
110 | GGCAAACC | -0.196 ± 0.021
111 | AGCGTTCA | 0.0667 ± 0.031
112 | TAACCTCA | -0.152 ± 0.0019
113 | CATCGGAC | -0.182 ± 0.051
114 | AAATCTGA | -0.0321 ± 0.14
115 | AGCTATGA | -0.211 ± 0.031
116 | GCGGTGAA | 0.0135 ± 0.017
117 | CATACCTC | 0.0641 ± 0.035
118 | ACTCATCC | -0.203 ± 0.024
119 | AAACAGCC | -0.0308 ± 0.073
120 | GCTACGAA | 0.148 ± 0.018
121 | ATGATTGG | -0.125 ± 0.048
122 | ATCAGGCA | -0.0961 ± 0.031
123 | ACCTCTCT | 0.0009 ± 0.12
124 | AGCCTGAC | -0.16 ± 0.0071
125 | GCATGTAA | -0.124 ± 0.0041

Row | Sequence | PBM E-score of 8-mer
126 | CAATCTGG | -0.191 ± 0.018
127 | CACATTAA | 0.0988 ± 0.071
128 | TAGATCAA | -0.205 ± 0.035
129 | AAAGTGAT | 0.299 ± 0.012
130 | GACCCACC | -0.0714 ± 0.12
131 | GATACCCA | -0.115 ± 0.021
132 | AACGCTCC | -0.0249 ± 0.017
133 | ACTAAAGC | 0.0215 ± 0.041
134 | AAAGCGTA | -0.0884 ± 0.056
135 | GCACGATA | -0.145 ± 0.033
136 | AATTTCGT | -0.0997 ± 0.08
137 | AGATAAAA | -0.0961 ± 0.085
138 | GACACATA | 0.322 ± 0.038
139 | AGGAACTC | -0.232 ± 0.04
140 | AGTAACGA | 0.073 ± 0.024
141 | AAGGTAGT | 0.0368 ± 0.095
142 | AACGCAGC | -0.0607 ± 0.025
143 | CGCTTGAG | -0.0499 ± 0.011
144 | AAGCGACA | 0.195 ± 0.069
145 | AGGTCCAT | -0.228 ± 0.022
146 | CACTCACA | 0.357 ± 0.012
147 | TCGCTAAA | 0.163 ± 0.043
148 | ACTGTTCA | -0.0217 ± 0.047
149 | CGATATCA | 0.163 ± 0.074
150 | AATCGCCG | -0.108 ± 0.0071

Row | Sequence | PBM E-score of 8-mer
151 | GCCGGTGA | -0.0636 ± 0.022
152 | CACCGTCC | 0.0123 ± 0.0021
153 | AGGCCGCA | 0.00458 ± 0.028
154 | ATTATATA | -0.223 ± 0.0047
155 | CCGACACA | 0.37 ± 0.028
156 | AGAGGCCA | -0.0561 ± 0.032
157 | GACTCCTC | 0.0454 ± 0.092
158 | AGTGCGAG | 0.405 ± 0.021
159 | TCGTCTAA | -0.131 ± 0.027
160 | CCGGGATC | -0.165 ± 0.025
161 | ATCGTGGG | 0.00341 ± 0.014
162 | AGCCCGAT | -0.237 ± 0.035
163 | TGTCCCAA | -0.0722 ± 0.014
164 | ATAGTCTG | -0.119 ± 0.065
165 | CGTATCTC | -0.17 ± 0.0074
166 | AGCGGTAA | -0.198 ± 0.013
167 | AGTTAGCA | 0.32 ± 0.023
168 | ACTATACG | -0.179 ± 0.053
169 | ATAGGCAC | -0.0213 ± 0.017
170 | ACAATAGG | -0.0435 ± 0.0018
171 | ACCAGAGG | -0.00261 ± 0.038
172 | AATGCATA | -0.2524 ± 0.0016

From the supplement of paper PMC4166925
